Screen size: about 310,000 compounds; about 2,200 (0.71%) showed an effect of 50% or more. Effects have a minus sign here. Some of the results follow.

In this assay the target is human ether-à-go-go-related gene (hERG) potassium channel (human, UniProt Q12809). The assay is described as follows: primary screen, population patch clamp on CHO cells stably expressing hERG.
human ether-à-go-go-related gene (hERG) potassium channel, sequence (Q12809 whole entry, looked up): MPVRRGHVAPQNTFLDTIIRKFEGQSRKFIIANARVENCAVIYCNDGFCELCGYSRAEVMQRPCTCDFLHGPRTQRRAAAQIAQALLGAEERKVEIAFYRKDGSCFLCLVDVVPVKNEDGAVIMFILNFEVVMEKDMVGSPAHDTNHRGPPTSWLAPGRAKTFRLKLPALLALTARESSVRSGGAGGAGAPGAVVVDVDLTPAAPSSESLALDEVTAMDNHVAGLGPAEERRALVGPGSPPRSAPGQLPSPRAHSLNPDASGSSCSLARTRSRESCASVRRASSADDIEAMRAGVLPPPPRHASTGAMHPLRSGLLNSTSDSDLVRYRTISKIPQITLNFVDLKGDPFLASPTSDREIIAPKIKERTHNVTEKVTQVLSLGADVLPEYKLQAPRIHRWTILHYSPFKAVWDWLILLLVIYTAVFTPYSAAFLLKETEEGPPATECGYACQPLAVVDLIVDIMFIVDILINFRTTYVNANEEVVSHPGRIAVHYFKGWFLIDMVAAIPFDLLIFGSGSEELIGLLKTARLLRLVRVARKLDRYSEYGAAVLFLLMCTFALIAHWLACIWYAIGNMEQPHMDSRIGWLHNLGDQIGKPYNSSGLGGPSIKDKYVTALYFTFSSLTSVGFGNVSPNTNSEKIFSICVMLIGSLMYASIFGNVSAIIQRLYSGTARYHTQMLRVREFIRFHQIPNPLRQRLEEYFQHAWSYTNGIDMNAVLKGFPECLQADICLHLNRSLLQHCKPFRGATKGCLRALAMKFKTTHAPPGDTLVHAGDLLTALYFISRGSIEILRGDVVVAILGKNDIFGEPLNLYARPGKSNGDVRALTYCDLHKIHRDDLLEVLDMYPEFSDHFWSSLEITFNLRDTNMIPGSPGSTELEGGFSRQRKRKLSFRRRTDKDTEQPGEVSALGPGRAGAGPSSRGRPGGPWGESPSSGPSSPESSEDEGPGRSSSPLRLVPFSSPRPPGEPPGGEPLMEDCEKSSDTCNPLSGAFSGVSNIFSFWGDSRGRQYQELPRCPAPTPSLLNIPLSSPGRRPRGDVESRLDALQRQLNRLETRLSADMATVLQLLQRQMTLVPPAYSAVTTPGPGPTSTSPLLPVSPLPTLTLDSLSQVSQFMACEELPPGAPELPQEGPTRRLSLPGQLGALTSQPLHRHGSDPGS
Consider `CCNC(=O)CN1C(=O)NC(Cc2ccccc2)(Cc2ccccc2)C1=O`, for which the “hERG current change (%, negative = inhibition) at 1uM” value was determined as 3%.
Consider `Cc1ccc2c(c1)nc(-n1nc(C)cc1C)c1nnnn12`, for which the “hERG current change (%, negative = inhibition) at 1uM” value is listed as 9.29%.
Then `Cn1c(CNC(=O)c2ccc(Cl)cc2)nnc1SCC(=O)NC1CCCC1`, with 8.43%; and `COc1cccc(/C=N/NC(=O)c2ccc3nc[nH]c3c2)c1O`, with 3.26%; and `CCOC(=O)COc1ccc(Br)cc1/C=C\c1[nH]c(=O)[nH]c(=O)c1[N+](=O)[O-]`, with 6.81%.
Consider `CCc1nnc(NC(=O)C(CC)CC)s1`, for which the “hERG current change (%, negative = inhibition) at 1uM” value is on record as -1.38%.
As for `CCOC(=O)c1ccc(-n2c(CN3CCC(O)CC3)nc3ccc([N+](=O)[O-])cc3c2=O)cc1`, the “hERG current change (%, negative = inhibition) at 1uM” value is reported as 13%.
For the compound `CCCS(=O)(=O)N1CCCC(C(=O)Oc2ccccc2Cl)C1` (stereo not drawn), the “hERG current change (%, negative = inhibition) at 1uM” value is listed as 13.7%.
As for `Cc1ccc(C2N=C(N)Nc3nc4ccccc4n32)cc1` (stereo not drawn), the “hERG current change (%, negative = inhibition) at 1uM” value was 15.3%.
Next, `Cc1ccc(NC(=O)Nc2cnccn2)cc1Cl`: 9.04%; `CC1CC1c1ccc(/C=C(\C#N)C(=O)Nc2ccc(Cl)cc2Cl)o1` (stereo not drawn): -4.11%; `CCOc1ccccc1N(CC(=O)Nc1ccc2c(c1)OCCO2)S(C)(=O)=O`: 6.44%.
On to `Cc1ccc(C(=O)OCC(=O)Nc2c(C)n(C)n(-c3ccccc3)c2=O)cc1[N+](=O)[O-]`, for which the “hERG current change (%, negative = inhibition) at 1uM” value is 10.5%.
On to `CCCCN(C(=O)c1c(C)[nH]c(C(=O)OCC)c1C)c1ccccc1`, for which the “hERG current change (%, negative = inhibition) at 1uM” value came out at 1.54%.
On to `O=C1CC(N2CCN(c3ccc(S(=O)(=O)N4CCCC4)cc3)CC2)C(=O)N1c1ccc(F)cc1` (stereo not drawn), for which the “hERG current change (%, negative = inhibition) at 1uM” value is 3.64%.
On to `COc1ccc(C2Nc3ccccc3C(=O)N2NS(C)(=O)=O)c(OC)c1` (stereo not drawn), for which the “hERG current change (%, negative = inhibition) at 1uM” value came out at 29.7%.
For the compound `O=C(CN1C(=O)c2cccc([N+](=O)[O-])c2C1=O)NCc1ccccc1`, the “hERG current change (%, negative = inhibition) at 1uM” value is listed as -8.98%.
With `O=C(Nc1ccc(S(=O)(=O)Nc2nccs2)cc1)c1cc(-c2ccncc2)nc2ccccc12`, the “hERG current change (%, negative = inhibition) at 1uM” value is 6.92%.
For `CSc1nn2c(C)c(C)c(C)nc2c1C#N`, the “hERG current change (%, negative = inhibition) at 1uM” value is 0.978%.
Then `CCOC(=O)c1cnc(SC)nc1Nc1cccc2ccccc12`, with 1.8%; and `COc1ccc(CN(C)CC2CCCN(CCc3ccc(F)cc3)C2)cc1OC` (stereo not drawn), with -8.47%.
`CCOC(=O)c1nc(Nc2ccccc2)c2ccccc2n1`: the “hERG current change (%, negative = inhibition) at 1uM” value is on record as -8.82%.
Consider `C=CCNC(=O)CN1c2cccc3cccc(c23)S1(=O)=O`, for which the “hERG current change (%, negative = inhibition) at 1uM” value was 14.7%.
In the case of `COc1ccc(S(=O)(=O)N2CCN(Cc3cccc(OC)c3OC)CC2)cc1`, the “hERG current change (%, negative = inhibition) at 1uM” value is listed as 9.88%.
Next, `CCN(CC(=O)NCc1cccs1)C(=O)CCCOc1ccc(C(C)(C)C)cc1`: -0.644%.
Turning to `CS(=O)(=O)Nc1ccccc1C(=O)NCc1ccccc1Cl`, the “hERG current change (%, negative = inhibition) at 1uM” value is given as 8.64%.
Then `O=C(COC(=O)c1ccccc1[N+](=O)[O-])NNC(=O)c1cccs1`, with 6.17%; and `COc1ccc(N2C(=O)C3CCCCC3C2=O)cc1NC(=O)c1ccccc1` (stereo not drawn), with 14.3%; and `CC(NC(=O)CCNS(=O)(=O)c1ccccc1)c1ccccc1` (stereo not drawn), with 7%.
Next, `CCOC(=O)c1c(NC(=O)CSc2nc3c(c(=O)n(C)c(=O)n3C)n2CC)sc(C)c1C`: 9.17%; `C=CCN1C(=O)c2ccc(C(=O)NCCc3ccc(F)cc3)cc2C1=O`: 13.1%.
For the compound `O[C@H]1[C@H](O)[C@@H](O)CN2CC[C@H](O)[C@H]12`, the “hERG current change (%, negative = inhibition) at 1uM” value amounted to 15.9%.
As for `CC(=O)n1cc(/C=N/NC(=O)c2ccc(Cl)cc2)c2ccccc21`, the “hERG current change (%, negative = inhibition) at 1uM” value is on record as 13.4%.
In the case of `COc1ccc(OCc2cc(C(=O)N3CCN(CC4CC4)CC3)no2)c(Cl)c1`, the “hERG current change (%, negative = inhibition) at 1uM” value worked out at 15.3%.
Then `COc1ccc(NC(=O)COC(=O)C2CC2)cc1S(=O)(=O)N1CCCCC1`, with -5.13%.
In the case of `CC(C)[C@H](NC(=O)Nc1ccc2c(c1)OCCO2)C(=O)O`, the “hERG current change (%, negative = inhibition) at 1uM” value was 8.52%.
Next, `Cc1ccc(CN(C)C(=O)c2cccc(S(=O)(=O)N3CCc4ccccc4C3)c2)o1`: 7.64%.
Then `CCOC(=O)C1=C(C)Nc2ncnn2C1c1cccs1` (stereo not drawn), with 12.9%.
Take `N#C/C(=C\c1c(N2CCCCCC2)nc2ccccn2c1=O)C(=O)NC1CCS(=O)(=O)C1` (stereo not drawn): the “hERG current change (%, negative = inhibition) at 1uM” value is reported as -2.42%.
As to `Cc1ccc(C2C(C(=O)c3cccs3)=C(O)C(=O)N2CCN2CCOCC2)o1` (stereo not drawn), the “hERG current change (%, negative = inhibition) at 1uM” value is listed as -8.77%.
As to `COc1ccc(-c2cc(=O)oc3cc(OCC(=O)NCC4CCC(C(=O)O)CC4)ccc23)cc1` (stereo not drawn), the “hERG current change (%, negative = inhibition) at 1uM” value is given as 12.4%.
Next, `CC(=O)OC1=C(C#N)Cn2ccc3cccc1c32`: 9.07%; `CCN1C(=O)CC(N2CCC(C(=O)N3CCCCCC3)CC2)C1=O` (stereo not drawn): 11.6%.
For the compound `CC(=O)N1N=C(c2cccs2)CC1c1cccs1` (stereo not drawn), the “hERG current change (%, negative = inhibition) at 1uM” value was determined as 6.89%.
Next, `O=C(/C=C/Nc1ccc(S(=O)(=O)Nc2ncccn2)cc1)c1ccc(Cl)c(Cl)c1`: 9.43%; `C=CCC(CC=C)(NC(=O)c1ccccc1C)c1ccccc1`: 13.8%.
Then `O=S(=O)(NCCc1ccncc1)c1ccc(Br)cc1`, with 3.96%.
Then `C/C(=N\NC(N)=O)c1cc(Cl)cc(Cl)c1O`, with 13.8%; and `O=C(CN1CCC(NC(=O)c2cccc(F)c2)CC1)Nc1ccc(Br)cc1`, with -53.9%; and `NNc1nc2ccccc2nc1C(F)(F)F`, with 11.9%.
Consider `Cc1cc(C(=O)NCCN2CCCCC2C)n(-c2ccccc2)n1` (stereo not drawn), for which the “hERG current change (%, negative = inhibition) at 1uM” value amounted to 7.55%.
Turning to `O=C(NNC(=O)C1CCCN(c2ncccn2)C1)c1ccc(F)cc1` (stereo not drawn), the “hERG current change (%, negative = inhibition) at 1uM” value is on record as 8.67%.
Next, `CC1CCCCC1NC1=NCCS1` (stereo not drawn): 12.3%.
Take `Cc1ccc(C(C)C)c(OCC(O)CN2CCN(CCO)CC2)c1.Cl` (stereo not drawn): the “hERG current change (%, negative = inhibition) at 1uM” value amounted to 4.68%.
Next, `O=C(NCC1CCCO1)c1cccc(NC(=O)c2ccco2)c1` (stereo not drawn): 4.75%.
Then `Cc1ccc(/C=N/NC(=O)CNC(=O)c2cccc([N+](=O)[O-])c2C)o1`, with 14.9%; and `CCOC(=O)Cn1ncc2c(=O)oc3ccccc3c21`, with 8.99%.

The record behind these values is publication PMC4336329 (PLoS ONE, 2015).
